{"source": "the supplement of paper PMC5499739", "note": "Whole data set: some 16,000 sequences, median “Z-score” near -0.37, cut for the highest 2% near 3.1. This is one part of the list."}
{"test_system": "RBM10 RRM1-ZnF-RRM2 (GST-tagged construct)", "assay": "RNAcompete 7-mer binding Z-score; higher = stronger binding preference", "procedure,_shortened": "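In 1 ml Hepes pH 7.8 buffer with KCl, NaCl, glycerol, DTT, BSA and glutathione Sepharose beads, GST-tagged RBM10 constructs (20 pmol) were incubated for 30 min at 4°C with 1.5 nmol of a designed pool of 241 399 RNAs up to 41 nt. Four 2-min washes at 4°C followed, and bound RNA was detected by microarray hybridisation. Heptamer motif enrichment was expressed as a one-sided Z-score across probes containing each motif.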"}
{"sequence": "UGGUUAG", "RNAcompete 7-mer binding Z-score": 1.94}
{"sequence": "UGACCCG", "RNAcompete 7-mer binding Z-score": -0.464}
{"sequence": "CCCCGUG", "RNAcompete 7-mer binding Z-score": 0.0859}
{"sequence": "GAGCCAC", "RNAcompete 7-mer binding Z-score": -0.606}
{"sequence": "CCCACAU", "RNAcompete 7-mer binding Z-score": -0.77}
{"sequence": "AACCCUC", "RNAcompete 7-mer binding Z-score": -0.883}
{"sequence": "CUCUCGG", "RNAcompete 7-mer binding Z-score": -0.653}
{"sequence": "AUCGGGU", "RNAcompete 7-mer binding Z-score": 1.95}
{"sequence": "GUCAUUA", "RNAcompete 7-mer binding Z-score": -0.187}
{"sequence": "AGUGACA", "RNAcompete 7-mer binding Z-score": 0.501}
{"sequence": "AUAUCAU", "RNAcompete 7-mer binding Z-score": -0.486}
{"sequence": "UGAAAGU", "RNAcompete 7-mer binding Z-score": 0.334}
{"sequence": "GACUGGU", "RNAcompete 7-mer binding Z-score": 0.454}
{"sequence": "UGUUCAG", "RNAcompete 7-mer binding Z-score": -0.446}
{"sequence": "CCGCGGU", "RNAcompete 7-mer binding Z-score": 0.0714}
{"sequence": "GUUGCUA", "RNAcompete 7-mer binding Z-score": -0.173}
{"sequence": "CACAUGU", "RNAcompete 7-mer binding Z-score": -0.322}
{"sequence": "GGUCGGU", "RNAcompete 7-mer binding Z-score": 1.55}
{"sequence": "CUUCGGU", "RNAcompete 7-mer binding Z-score": -0.551}
{"sequence": "GGGCCUU", "RNAcompete 7-mer binding Z-score": -0.078}
{"sequence": "AAACGCC", "RNAcompete 7-mer binding Z-score": -0.785}
{"sequence": "UUCUGAU", "RNAcompete 7-mer binding Z-score": -0.69}
{"sequence": "ACUGUUG", "RNAcompete 7-mer binding Z-score": -0.515}
{"sequence": "CGGUUUU", "RNAcompete 7-mer binding Z-score": -0.256}
{"sequence": "CCUACAC", "RNAcompete 7-mer binding Z-score": -0.952}
{"sequence": "UUAGUGA", "RNAcompete 7-mer binding Z-score": 0.217}
{"sequence": "UACUGUC", "RNAcompete 7-mer binding Z-score": -0.81}
{"sequence": "AUUAGCA", "RNAcompete 7-mer binding Z-score": 0.141}
{"sequence": "GCGAUGC", "RNAcompete 7-mer binding Z-score": 0.45}
{"sequence": "CGACCUC", "RNAcompete 7-mer binding Z-score": -0.912}
{"sequence": "CAACAGG", "RNAcompete 7-mer binding Z-score": 1.32}
{"sequence": "CCUAGCC", "RNAcompete 7-mer binding Z-score": -0.861}
{"sequence": "UCACGAU", "RNAcompete 7-mer binding Z-score": -0.555}
{"sequence": "AUUGCGA", "RNAcompete 7-mer binding Z-score": -0.0488}
{"sequence": "CGCGUCU", "RNAcompete 7-mer binding Z-score": -0.617}
{"sequence": "AAAGUGG", "RNAcompete 7-mer binding Z-score": 2.41}
{"sequence": "CUAGCCC", "RNAcompete 7-mer binding Z-score": -0.839}
{"sequence": "UCUUCGC", "RNAcompete 7-mer binding Z-score": -0.737}
{"sequence": "GUUACGG", "RNAcompete 7-mer binding Z-score": 0.851}
{"sequence": "CAUGAUU", "RNAcompete 7-mer binding Z-score": -0.672}
{"sequence": "CCUUAUA", "RNAcompete 7-mer binding Z-score": -0.934}
{"sequence": "GGGAGAC", "RNAcompete 7-mer binding Z-score": 2.08}
{"sequence": "AGAGCGC", "RNAcompete 7-mer binding Z-score": -0.657}
{"sequence": "CUCGCUC", "RNAcompete 7-mer binding Z-score": -0.694}
{"sequence": "CAUCUAC", "RNAcompete 7-mer binding Z-score": -0.857}
{"sequence": "UCGGGAG", "RNAcompete 7-mer binding Z-score": 1.18}
{"sequence": "CUCAUUU", "RNAcompete 7-mer binding Z-score": -1.06}
{"sequence": "GGCGUGA", "RNAcompete 7-mer binding Z-score": 1.34}
{"sequence": "CUUCUUC", "RNAcompete 7-mer binding Z-score": -0.854}
{"sequence": "UCCCAAC", "RNAcompete 7-mer binding Z-score": -0.664}
{"sequence": "UUGGCCU", "RNAcompete 7-mer binding Z-score": -0.602}
{"sequence": "UGGCUCA", "RNAcompete 7-mer binding Z-score": -0.275}
{"sequence": "UAAAUUU", "RNAcompete 7-mer binding Z-score": -0.69}
{"sequence": "UUUCUAA", "RNAcompete 7-mer binding Z-score": -0.592}
{"sequence": "CGUUGGG", "RNAcompete 7-mer binding Z-score": 1.88}
{"sequence": "CAUAGUA", "RNAcompete 7-mer binding Z-score": -0.078}
{"sequence": "ACGUCUU", "RNAcompete 7-mer binding Z-score": -0.763}
{"sequence": "AGCUCCG", "RNAcompete 7-mer binding Z-score": -0.803}
{"sequence": "CUGUCAA", "RNAcompete 7-mer binding Z-score": -0.646}
{"sequence": "AUCGGUU", "RNAcompete 7-mer binding Z-score": -0.289}
{"sequence": "UUGCCUA", "RNAcompete 7-mer binding Z-score": -0.763}
{"sequence": "UCAGCUG", "RNAcompete 7-mer binding Z-score": -0.522}
{"sequence": "CGGACUU", "RNAcompete 7-mer binding Z-score": -0.344}
{"sequence": "AGAAGUC", "RNAcompete 7-mer binding Z-score": -0.395}
{"sequence": "ACACAUU", "RNAcompete 7-mer binding Z-score": -0.744}
{"sequence": "GGGCGGA", "RNAcompete 7-mer binding Z-score": 3.09}
{"sequence": "CACUAUA", "RNAcompete 7-mer binding Z-score": -0.519}
{"sequence": "GUAUAGU", "RNAcompete 7-mer binding Z-score": 0.239}
{"sequence": "CCGACCC", "RNAcompete 7-mer binding Z-score": -0.792}
{"sequence": "UACCCAG", "RNAcompete 7-mer binding Z-score": -0.748}
{"sequence": "CGUGAUG", "RNAcompete 7-mer binding Z-score": 0.625}
{"sequence": "GCCGGGA", "RNAcompete 7-mer binding Z-score": 0.836}
{"sequence": "CAAUUAU", "RNAcompete 7-mer binding Z-score": -0.602}
{"sequence": "GGCGGGA", "RNAcompete 7-mer binding Z-score": 3.23}
{"sequence": "AUGAAAG", "RNAcompete 7-mer binding Z-score": 1.01}
{"sequence": "AUUUGGA", "RNAcompete 7-mer binding Z-score": 0.632}
{"sequence": "CCGCCCC", "RNAcompete 7-mer binding Z-score": -0.774}
{"sequence": "AUGAUCG", "RNAcompete 7-mer binding Z-score": -0.0634}
{"sequence": "CGCGGCC", "RNAcompete 7-mer binding Z-score": -0.417}
{"sequence": "GUGAGUA", "RNAcompete 7-mer binding Z-score": 1.18}
{"sequence": "UGUUACA", "RNAcompete 7-mer binding Z-score": -0.449}
{"sequence": "UACGCGU", "RNAcompete 7-mer binding Z-score": -0.347}
{"sequence": "UCGCACG", "RNAcompete 7-mer binding Z-score": -0.103}
{"sequence": "UUAAGAG", "RNAcompete 7-mer binding Z-score": 0.374}
{"sequence": "GGGUGUU", "RNAcompete 7-mer binding Z-score": 2.46}
{"sequence": "AACGGUA", "RNAcompete 7-mer binding Z-score": 0.898}
{"sequence": "UAUGAGU", "RNAcompete 7-mer binding Z-score": 0.173}
{"sequence": "UAGCACG", "RNAcompete 7-mer binding Z-score": -0.154}
{"sequence": "GAACACA", "RNAcompete 7-mer binding Z-score": -0.0233}
{"sequence": "AUAGUGC", "RNAcompete 7-mer binding Z-score": 0.192}
{"sequence": "CAAUGAG", "RNAcompete 7-mer binding Z-score": 0.891}
{"sequence": "UGCCCAA", "RNAcompete 7-mer binding Z-score": -0.741}
{"sequence": "CGGUUAC", "RNAcompete 7-mer binding Z-score": 0.148}
{"sequence": "UUGCUUC", "RNAcompete 7-mer binding Z-score": -0.785}
{"sequence": "CUCUCAC", "RNAcompete 7-mer binding Z-score": -0.821}
{"sequence": "UUAAUGA", "RNAcompete 7-mer binding Z-score": -0.315}
{"sequence": "AAGUCUU", "RNAcompete 7-mer binding Z-score": -0.697}
{"sequence": "AAUGGAG", "RNAcompete 7-mer binding Z-score": 3.01}
{"sequence": "CGAAGAG", "RNAcompete 7-mer binding Z-score": 0.399}
{"sequence": "CAAGAAU", "RNAcompete 7-mer binding Z-score": -0.344}
{"sequence": "CCAUGCG", "RNAcompete 7-mer binding Z-score": -0.395}
{"sequence": "UGAUUAC", "RNAcompete 7-mer binding Z-score": -0.439}
{"sequence": "AUGCUUA", "RNAcompete 7-mer binding Z-score": -0.704}
{"sequence": "ACGAGAC", "RNAcompete 7-mer binding Z-score": -0.0561}
{"sequence": "UACGUAA", "RNAcompete 7-mer binding Z-score": -0.169}
{"sequence": "GGAACUA", "RNAcompete 7-mer binding Z-score": 0.304}
{"sequence": "GUUUCAC", "RNAcompete 7-mer binding Z-score": -0.493}
{"sequence": "CUUCUUU", "RNAcompete 7-mer binding Z-score": -0.868}
{"sequence": "AUACCGG", "RNAcompete 7-mer binding Z-score": -0.00877}
{"sequence": "CUUUCCA", "RNAcompete 7-mer binding Z-score": -0.814}
{"sequence": "CACCAAG", "RNAcompete 7-mer binding Z-score": -0.358}
{"sequence": "AAGAGAU", "RNAcompete 7-mer binding Z-score": 0.385}
{"sequence": "AAAUAUA", "RNAcompete 7-mer binding Z-score": -0.169}
{"sequence": "GAAUGAC", "RNAcompete 7-mer binding Z-score": 0.184}
{"sequence": "GCCCCAU", "RNAcompete 7-mer binding Z-score": -0.803}
{"sequence": "CUGGUUC", "RNAcompete 7-mer binding Z-score": -0.672}
{"sequence": "ACAAAUA", "RNAcompete 7-mer binding Z-score": -0.26}
